# Experimental data reported in the BET-seq Pho4 binding data (Le et al. 2018).
# The list shows a part of the results. These are noisy estimates, calculated here from bound and input reads.
# Target: T1, Pho4 (S. cerevisiae) (UniProt P07270)
# T1 sequence: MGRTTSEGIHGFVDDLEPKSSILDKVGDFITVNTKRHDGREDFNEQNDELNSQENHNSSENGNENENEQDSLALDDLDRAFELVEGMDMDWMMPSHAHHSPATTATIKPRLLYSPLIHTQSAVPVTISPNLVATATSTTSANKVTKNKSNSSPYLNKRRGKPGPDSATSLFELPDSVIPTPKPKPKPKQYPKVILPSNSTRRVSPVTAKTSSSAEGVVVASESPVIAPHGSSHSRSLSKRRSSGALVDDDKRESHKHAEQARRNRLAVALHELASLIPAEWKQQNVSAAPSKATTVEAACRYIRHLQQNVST
# Test: relative binding free energy (BET-seq); higher = weaker binding
# Details: reference: library average
row,Sequence,relative binding free energy [kcal/mol]
1,GTGGACACGTGTGCGG,-0.1
2,TTTCGCACGTGAGAGT,0.06
3,GTAATCACGTGGTTGA,0.08
4,TTAGGCACGTGTCGAT,0.06
5,GGGAGCACGTGTGTGT,-0.07
6,ATGGGCACGTGCATTA,-0.24
7,GTAGGCACGTGATCGG,-0.19
8,GGCGGCACGTGGATTT,-0.09
9,GATTTCACGTGTAATG,0.32
10,TGGGTCACGTGGGCAT,-0.03
11,ACGGGCACGTGTAGTA,-0.12
12,AAGGTCACGTGCTTTG,0.15
13,ATGTGCACGTGGCTTC,-0.04
14,TGAGTCACGTGTTGTG,0.1
15,TTATGCACGTGTGCTT,0.07
16,CGGTACACGTGTTGAA,0.15
17,AGGAACACGTGTGGAG,0.11
18,GATTGCACGTGGAGGA,0.05
19,AATGTCACGTGTTAAG,0.09
20,GAGGTCACGTGTGTTA,0.15
21,TTAAGCACGTGGTAAA,-0.2
22,TGGTGCACGTGGTCGA,-0.24
23,CGGGTCACGTGTAGTT,0.15
24,CGGGTCACGTGCGGGG,0.11
25,GGGAGCACGTGGTATT,-0.03

row,Sequence,relative binding free energy [kcal/mol]
1,GGAGACACGTGCGCGG,-0.15
2,GTTTTCACGTGTTCAG,0.29
3,GAGCACACGTGGGGGT,0.06
4,GGTTGCACGTGAGGAC,0.4
5,ACTGGCACGTGTGGTG,-0.08
6,AGTGCCACGTGGGTGT,-0.25
7,AGGGACACGTGTGGAG,0.08
8,GGCGGCACGTGGTGAG,-0.08
9,AGGGACACGTGATCGG,0.03
10,TGTCGCACGTGGAAAG,0.04
11,TCGTGCACGTGATATG,-0.07
12,TGTCTCACGTGGCTGT,-0.04
13,CTGGTCACGTGGGCGT,-0.07
14,AGGGACACGTGGGAGG,-0.1
15,GGTTACACGTGGCGTA,0.12
16,AGTGGCACGTGTTGTA,-0.12
17,GGTCACACGTGGAAGG,0.31
18,ATGGTCACGTGCATAG,0.06
19,GGTGGCACGTGTTGAA,-0.05
20,ATTTACACGTGGTGAT,-0.08
21,TGCTACACGTGTAGTA,0.09
22,TGCAGCACGTGGTGTT,-0.2
23,CGCGACACGTGGGTTT,-0.01
24,GCTGGCACGTGTTGAT,-0.03
25,GTAGGCACGTGTGAAT,0.11

row,Sequence,relative binding free energy [kcal/mol]
1,GATAGCACGTGTTGGA,0.08
2,AGTATCACGTGTTGGA,0.23
3,TCGATCACGTGTGTAT,0.35
4,ATGGTCACGTGTGTTC,0.15
5,TTTGACACGTGATCTA,0.19
6,CTGGACACGTGGGTTT,0.02
7,AGTATCACGTGATTTA,0.34
8,GGTAGCACGTGATTCT,0.12
9,GGAGTCACGTGGTAGT,0.17
10,TATTGCACGTGTGCCG,0.07
11,ATGTGCACGTGGTGAC,-0.03
12,TCGGGCACGTGTGAGT,-0.08
13,TATTTCACGTGCTAAG,0.16
14,ACTGTCACGTGATGTA,0.27
15,GGTCGCACGTGGGGAG,-0.11
16,CTGAACACGTGGTTGT,-0.11
17,CAAATCACGTGTGGGG,0.12
18,AATTTCACGTGATGAG,0.41
19,TAAATCACGTGTATTG,0.04
20,AAGTGCACGTGTATTT,0.05
21,AGTGCCACGTGGGTTG,-0.29
22,GTTCACACGTGATGGT,0.3
23,CATTTCACGTGATTTG,0.42
24,TACCGCACGTGGTTTT,-0.09
25,AGATTCACGTGTATAG,0.16

row,Sequence,relative binding free energy [kcal/mol]
1,CGCTTCACGTGGGGGT,0.12
2,TAAGTCACGTGGGTAG,0.15
3,AGTCTCACGTGGTTGT,0.13
4,TAATACACGTGTGGCG,0.18
5,GTGGACACGTGTGACG,0.21
6,AGTGGCACGTGTAATG,-0.05
7,ATTTTCACGTGTAGAA,0.17
8,GTCTTCACGTGGTAAT,0.36
9,GTTTGCACGTGGGGTC,-0.05
10,GGGTTCACGTGGTAGG,0.4
11,GAAGACACGTGGGGGT,-0.06
12,TAGGGCACGTGTGGGA,0.01
13,TCATTCACGTGGCTTG,0.19
14,GTGAACACGTGAGTAT,0.1
15,ATGGGCACGTGAGTGC,0.09
16,TATCGCACGTGAAGTG,0.07
17,GCCGGCACGTGGGTAG,-0.15
18,ATGCACACGTGAGGTA,0.22
19,TGGTGCACGTGTGCGG,0.06
20,GGGGCCACGTGTTGGG,0.05
21,TGAAGCACGTGGAGTT,-0.1
22,TAGAGCACGTGTGGGT,-0.09
23,GGGATCACGTGTGCTT,0.23
24,ATGGTCACGTGACTGT,0.16
25,GTTGTCACGTGACTGG,0.24

row,Sequence,relative binding free energy [kcal/mol]
1,GAAGACACGTGTTTGG,-0.03
2,TGTTACACGTGTAGGT,0.15
3,TCTGTCACGTGTATTA,0.01
4,GGAGACACGTGAGGAT,0.36
5,GAGATCACGTGGCTTG,0.19
6,GATGCCACGTGTTTGT,0.01
7,CGGGACACGTGAGGAG,0.23
8,TCGGGCACGTGCTTTG,-0.19
9,TATCGCACGTGGTGAG,-0.04
10,GAGGGCACGTGCAGAG,-0.08
11,GTGTGCACGTGTAGAT,0.17
12,GCGTGCACGTGGAGGC,-0.03
13,CGGTGCACGTGGTTTC,0.06
14,TGCAGCACGTGGCGGT,-0.19
15,ATAGACACGTGAAGGG,0.3
16,GTGGTCACGTGACTAG,0.2
17,ATGAGCACGTGTCGTT,-0.11
18,TTGGCCACGTGGGTCT,-0.2
19,TGTATCACGTGTGCGA,0.21
20,CGTGGCACGTGAGATA,0.14
21,AGCTTCACGTGGATAG,0.3
22,TTGGCCACGTGTGTGC,0
23,AGGAGCACGTGAAGTT,-0.01
24,GGGGGCACGTGTTCTG,0.01
25,CGCTTCACGTGGTGGT,0.22

row,Sequence,relative binding free energy [kcal/mol]
1,TAACGCACGTGTGAGT,-0.08
2,GGGGGCACGTGGGTAT,-0.13
3,GGTTTCACGTGTATCT,0.3
4,AGAGTCACGTGTTTGC,0.16
5,TGTGTCACGTGGCGGG,0
6,TTTCGCACGTGGGGGT,-0.21
7,GTAGGCACGTGGTGAG,-0.07
8,GGCTTCACGTGGTAGG,0.26
9,AAGTACACGTGTGGAT,0.13
10,AGTTTCACGTGGTCAT,0.2
11,CGGGTCACGTGAGGCT,0.22
12,GAGGTCACGTGTGGCT,0.23
13,GGACGCACGTGAGGTT,0.16
14,AAGAGCACGTGTTGTT,-0.07
15,GTTTGCACGTGTAAAA,0.27
16,AATAGCACGTGCTGTG,-0.16
17,AATTTCACGTGGGTTC,0.2
18,ATGCGCACGTGATGTT,-0.01
19,GGCGTCACGTGACGGT,0.14
20,AAAATCACGTGTAGGT,0.28
21,AGTTACACGTGGTAAG,0.04
